Assay results from PubChem BioAssay AID493208 (National Center for Advancing Translational Sciences (NCATS), 2011).
About 340 (0.77%) of roughly 44,000 compounds were called active. Roughly 5% stayed inconclusive and do not appear here. The call rests on the fitted dose curve; in most records, active means well fitted inhibition curve with a large enough effect; inconclusive means small, poorly fitted or top-dose-only effect; inactive means flat fitted curve, though single readings scatter. This is one part of the list.

Assay: Acumen qHTS Assay for Inhibitors of the mTORC1 Signaling Pathway in MEF (Tsc2-/-, p53-/-) Cells: Sytravon;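 further: plate controls were DMSO for no effect and rapamycin for full effect; nearly all actives have a fitted effect of over 50% in size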
Details: phospho-rpS6 immunofluorescence/PI, 24 h; series mostly up to 38.3 µM; activity change, negative = inhibition: at the top concentration
Summary of the method: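 Plate MEFs (Tsc2-/-, p53-/-, empty vector) in DMEM/10% FBS; after 24 h add compound, incubate 24 h at 37 degree Celsius; fix in PFA/TX-100, block, stain phospho-rpS6 and 10 uM PI; scan at 488 nm; report % positive cells.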

Compound	activity change, negative = inhibition
CCSc1ncc(Cl)c(C(=O)Nc2nc3ccc(S(C)(=O)=O)cc3s2)n1	inactive: 1.53%
COc1ccc(-n2c(=O)c3sc4ccccc4c3n(C)c2=O)cc1	inactive: 1.86%
Cc1ccc(NC(=O)C2CCCN(S(=O)(=O)c3cccc4nsnc34)C2)cc1C (stereo unspecified)	inactive: -3%
CCOC(=O)Cc1ccc(NC(=O)N2CCSc3ccccc32)cc1	inactive: 1.6%
Cc1ccc(-c2nc(CS(=O)CC(=O)NCc3ccccc3Cl)c(C)o2)cc1 (stereo unspecified)	inactive: 6.53%
COCCNC(=O)C1CCN(C(=O)c2cc3sccc3n2Cc2ccc(Cl)cc2)CC1	inactive: 1.47%
CCCN(CCC)CCCNC(=O)C1CCCN(Cc2nc(-c3ccc(Cl)cc3)oc2C)C1 (stereo unspecified)	inactive: -7.55%
COc1ccc(C2(Nc3cccc(F)c3)C(=O)c3ccccc3C2=O)cc1	inactive: -0.0597%
COc1ccccc1NC(=O)CSC1=Nc2ccccc2C2=NC(CCC(=O)NCc3ccco3)C(=O)N12 (stereo unspecified)	inactive: -0.563%
O=c1ccc2cc(S(=O)(=O)Nc3ccc(F)c(Cl)c3)ccc2[nH]1	inactive: 0.354%
CCOc1ccc2nc(SCC(=O)Nc3ccc(F)cc3)nc(-c3ccccc3)c2c1	inactive: -4.36%
O=S(=O)(c1ccc(Cl)cc1)c1nc(-c2cccs2)oc1SCc1ccc(F)cc1	inactive: 0.433%
COc1cccc(CNC(=O)Cc2c(C)c3c(cc(C)c4c(C)c(C)oc43)oc2=O)c1	inactive: -6.01%
Cn1nnc2c(NCc3ccc(Cl)cc3)ncnc21	inactive: -9.15%
CC1=C(C(=O)Nc2ccc(Cl)cc2)C(c2ccccc2F)n2nc(SCc3cccc(Cl)c3)nc2N1 (stereo unspecified)	inactive: -16%
COc1ccc(OC)c(NC(=O)C2Cc3ccccc3CN2S(=O)(=O)c2ccc(F)cc2)c1 (stereo unspecified)	inactive: -2.95%
Cc1ccc(Cn2c(=O)n(CCc3ccc(Cl)cc3)c(=O)c3ccccc32)cc1	inactive: 2.23%
CCc1ccc(CNC(=O)c2cc3n(n2)CCCN(Cc2ccccc2)C3=O)cc1	inactive: -9.02%
COc1ccc(NC(=O)Cn2c(=O)n(Cc3ccccc3OC)c(=O)c3cccnc32)cc1Cl	inactive: 0.954%
Cc1ccc(Nc2c(-c3ccc(C)s3)nc3ccccn23)cc1	inactive: 0.481%
COC(=O)c1cccc(NC2=NS(=O)(=O)c3ccccc32)c1	inactive: -1.44%
Cc1cc(Cl)ccc1NC(=O)Cc1ccc(NC(=O)N2CCCCc3ccccc32)cc1	inactive: 2.16%
COc1ccc(C)cc1NC(=O)C1CCN(S(=O)(=O)c2cc(Br)cc3c2N(C(C)=O)CC3)CC1	inactive: -0.847%
COc1ccc(C)c2sc(N3CCN(C(=O)c4cccc(F)c4)CC3)nc12	inactive: -0.303%

Compound	activity change, negative = inhibition
CCOc1ccccc1NC(=O)N(Cc1ccc(C)o1)C1CCN(C(C)=O)CC1	inactive: 1.21%
Cc1ccc(-c2cc3ncc4c(n3n2)-c2cc(F)ccc2OC4)cc1	inactive: 4.18%
CCOC(=O)CNC(=O)N1CCCN(S(=O)(=O)c2ccc3c(ccn3CC)c2)CC1	inactive: -4.84%
CCc1nn2c(=O)cc(COC(=O)c3ccccc3)nc2s1	inactive: -1.79%
CCn1c(SCc2c(F)cccc2Cl)nc(=O)c2c(C(=O)OC)cc(C3CC3)nc21	inactive: 2.51%
O=C(c1ccccc1Br)N(Cc1ccco1)Cc1ccco1	inactive: 0.79%
CCc1ccc(C(=O)c2cn(CC(=O)Nc3cccc(OC)c3)c3cc4c(cc3c2=O)OCO4)cc1	inactive: 0.0239%
CCOc1ccccc1NC(=O)CN(C)S(=O)(=O)c1ccc(C(=O)N2CCOCC2)s1	inactive: 14.3%
O=c1c(=O)n(-c2ccc(F)c(F)c2)ccn1Cc1ccc(F)cc1Cl	inactive: 8.84%
COc1ccc(C)cc1NC(=O)C1CCCN(c2ncnc3onc(C)c23)C1 (stereo unspecified)	inactive: -0.381%
CCOC(=O)C1=C(CS(=O)(=O)c2ccc(F)c(C)c2)NC(=O)NC1c1ccccc1OC (stereo unspecified)	inactive: -11%
CCc1nn(CC(=O)N2CCCCC2)c(=O)c2cc3occc3n12	inactive: -8.92%
CCOC(=O)c1noc2ncn(CC(=O)Nc3cccc(C(F)(F)F)c3)c(=O)c12	inactive: -8.82%
Cc1cccc(NC(=O)CCn2cnc3ccccc3c2=O)c1	inactive: -24.4%
CCOc1ccc(NC(=O)N2CCN(c3nnc(C)c4c(C)n(-c5ccccc5)nc34)CC2)cc1	inactive: -6.55%
CCCCn1c(=O)n(-c2cc(OC)ccc2OC)c(=O)c2c3c(sc21)CN(C(C)=O)CC3	inactive: 0.61%
COc1ccc(-n2nc(C(=O)Nc3cc(C)ccn3)c3c4ccccc4n(C)c3c2=O)cc1	inactive: -3.15%
CCOc1ccc(-n2nc3ccc(NC(=O)c4ccc(OC)c(Cl)c4)cc3n2)cc1	inactive: 2.46%
Cc1cc(Nc2cccc(Cl)c2)nc2ccc(NC(=O)c3cncc(Br)c3)cc12	inactive: -7.12%
O=C(CC1N=C2c3ccccc3N=C(SCc3ccccc3Cl)N2C1=O)NCCc1ccccc1 (stereo unspecified)	inactive: -3.29%
Cc1ccc2c(=O)cc(C(=O)Nc3sc4c(c3C(=O)NCC3CCCO3)CCC4)oc2c1 (stereo unspecified)	inactive: 0.167%
Cc1oc(-c2ccccc2Cl)nc1CS(=O)(=O)CC(=O)NCc1ccc(F)cc1	inactive: -0.891%
CCC(C(=O)NCc1ccccc1OC)n1nc(C)n2c(cc3occc32)c1=O (stereo unspecified)	inactive: -4.74%
CCOC(=O)Cn1c(=O)n(CC2CCCO2)c2nc(-c3ccccc3)nc(C(N)=O)c21 (stereo unspecified)	inactive: 3.16%

Compound	activity change, negative = inhibition
COc1ccc(C(=O)Nc2ccc(N(C)Cc3ccccc3)c(C(=O)O)c2)cc1	inactive: -0.737%
CCOC(=O)C1=C(CN2CCN(c3ccccc3OC)CC2)NC(=O)NC1c1ccccc1 (stereo unspecified)	inactive: 2.13%
CC(C)NC(=O)N1[C@H](c2cccs2)[C@@H](C)C(=O)[C@@H](C)[C@@H]1c1cccs1	inactive: 6.69%
O=C(CN1CCCN(Cc2ccccc2F)S1(=O)=O)Nc1ccc(F)c(Cl)c1	inactive: -3.43%
Cc1cc(C)cc(NC(=O)N2CCC(CN3CCOCC3)CC2)c1	inactive: -5.36%
COc1ccc(-c2nnc(SCC(=O)NCCC(C)C)nc2-c2ccc(OC)c(OC)c2)cc1OC	inactive: 0.413%
Cc1ccc(CNCc2ccccc2Cl)s1	inactive: -14.3%
COCc1cc(C)nc2c1C(=O)NC(c1ccc(F)cc1)N2Cc1ccccc1 (stereo unspecified)	inactive: 1.98%
COC(=O)c1cc2oc(C)cc2n1CC(=O)Nc1ccc(C(C)C)cc1	inactive: 0.647%
CCCCNC(=O)c1ccc2c(=O)n(Cc3ccc(OC)cc3)c(=O)[nH]c2c1	inactive: -9.73%
CC1Cc2ccccc2N1C(=O)CSc1nc2ccc(NC(=O)COc3ccccc3)cc2s1 (stereo unspecified)	inactive: -3.45%
CC1=C(C(=O)NCc2cccc(F)c2)C2(CCCCC2)OC1=O	inactive: -0.174%
N#Cc1c(C(F)(F)F)cc(-c2cccs2)nc1SCc1ccc(F)cc1	inactive: 0.0931%
CCOC(=O)C(C)Sc1ccc2nnc(CCNS(=O)(=O)c3ccc(C)cc3)n2n1 (stereo unspecified)	inactive: -9.16%
Cc1ccccc1CSc1cn(CC(=O)N2CCCCC2)c2ccccc12	inactive: -9.7%
CCOC(=O)c1c(C)oc2nc(C)nc(NCC3CCN(Cc4ccc(C)cc4)CC3)c12	inactive: -3.5%
Cc1nn(C)cc1CN(C)C(=O)c1cc(-c2ccccc2)nc2ccc(Br)cc12	inactive: 0.98%
CCOc1ccc(CCNC(=O)c2oc(=O)c3ccccc3c2-c2ccc(C)cc2)cc1OCC	inactive: 0.808%
Cc1ccc(NC(=O)CCS(=O)(=O)c2ccc(Br)s2)c(Br)c1	inactive: 1.74%
CC(C)(C)c1ccc(C(=O)NCCc2csc(-c3ccc(Cl)cc3)n2)cc1	inactive: -1.18%
Cc1ccc(C)c(N2CCN(S(=O)(=O)c3ccc4c(c3)C(C(C)C)C(=O)N4)CC2)c1 (stereo unspecified)	inactive: -7.42%
CSc1ncc(C(=O)NCc2ccccc2F)c(-c2ccccc2)n1	inactive: -0.244%
CCCc1ccc(OCC(=O)Nc2sc(C(=O)OCC)c(C)c2C(=O)OCC)cc1	inactive: -7.07%
CCc1ccccc1NS(=O)(=O)c1ccc2[nH]cc(C(=O)N(CC)Cc3ccccc3)c(=O)c2c1	inactive: 1.64%

Compound	activity change, negative = inhibition
COc1ccc(OC)c(C2CC(=O)Nc3c2c(=O)[nH]c2ncnn32)c1 (stereo unspecified)	inactive: 0.775%
COc1ccc(C2NC(=O)N(C)C3=C2C(=O)N(c2ccc(C(=O)O)cc2)C3)cc1 (stereo unspecified)	inactive: 6.12%
CCc1ccc(C2CC(=O)c3c([nH]c(C(=O)OC4CCCC4)c3C)C2)cc1 (stereo unspecified)	inactive: -5.75%
COc1cccc(-c2nc(CS(=O)(=O)CC(=O)N3CCN(c4cc(C)ccc4C)CC3)c(C)o2)c1	inactive: -1.65%
CCOC(=O)c1ccc(CN(Cc2ccc(F)cc2)S(=O)(=O)c2ccc(F)c(C(=O)Nc3c(C)cccc3C)c2)cc1	inactive: 10.6%
CCc1ccc2occ(CC(=O)Nc3c(C(=O)c4ccc(C)cc4)oc4ccccc34)c2c1	inactive: 1.96%
COc1ccc(S(=O)(=O)Nc2c(C)nc3nc[nH]n3c2=O)cc1	inactive: -8.08%
Cc1ccc2c(CNCc3ccc(C)o3)c(C(=O)O)n(Cc3ccccc3C)c2c1	inactive: -6.79%
Cc1cc(S(=O)(=O)C(CNC(=O)c2ccc(F)c(F)c2)c2cccs2)ccc1F (stereo unspecified)	inactive: 15.4%
Cc1ccc(S(=O)(=O)n2nc(-c3ccc(Cl)cc3)nc2NCc2ccc(F)cc2)cc1	inactive: -12.6%
CC(=O)N1CCCc2cc(S(=O)(=O)N3CCCC(C(=O)N4CCN(c5ccccc5)CC4)C3)ccc21 (stereo unspecified)	inactive: -17.8%
Cc1cc(C)c2c(CC(=O)Nc3ccc(S(=O)(=O)Nc4nc(C)cc(C)n4)cc3)coc2c1	inactive: 2.06%
COc1ccc(CNC(=O)c2cc3cc(OC)ccc3oc2=O)cc1	inactive: -23.5%
COc1ccc2c(c1)cc1c(=O)n(CC(=O)NC(C)CCc3ccccc3)nc(C)n12 (stereo unspecified)	inactive: -2.49%
Cc1ccc(-c2ccc(=O)n(CC(=O)NCCc3ccccc3)n2)cc1	inactive: 4.99%
Cc1ccc(-n2ncc3c(Nc4cccc(C(=O)O)c4)ncnc32)cc1	inactive: 12.9%
CCCSCCCNC(=O)C1CCN(c2nc3ccccc3nc2C(F)(F)F)CC1	inactive: -3.33%
CCCCn1cnc2cc(NCc3ccccc3Cl)ccc21	inactive: -23.4%
Cc1cccc(/C=C/c2onc(C)c2S(=O)(=O)N2CCC(C(=O)N3CCCCC3)CC2)c1	inactive: -1.54%
COc1ccc(-c2[nH]c(-c3ccc(Cl)cc3)nc2SCC(=O)NCC2CCCO2)cc1 (stereo unspecified)	inactive: -0.313%
Cc1ccc(NC(=O)C(=O)NCC(c2cccnc2)N2CCN(Cc3ccccc3)CC2)cc1F (stereo unspecified)	inactive: -3.17%
O=C(Cc1cccs1)NC1CC(=O)N(c2ccc(F)cc2)C1 (stereo unspecified)	inactive: 0.388%
Cc1oc(-c2ccc(C(=O)NCc3ccccc3)cc2)nc1CN1CCc2ccccc21	inactive: 9.98%
COc1ccc(-c2csc3ncnc(Nc4cccc(OC)c4)c23)cc1	inactive: 0%
